Test results: PubChem BioAssay AID1468 (National Center for Advancing Translational Sciences (NCATS), 2008)
The campaign covered roughly 280,000 compounds. About 1,100 (0.39%) were called active. This list was built around the results that the source calls inconclusive (neither active nor inactive); the mix of calls is not that of the screen. Calls come from the whole dose curve; as a rule, active = well fitted inhibition curve with a large enough effect; inconclusive = small, poorly fitted or top-dose-only effect, or effect the other way; inactive = flat fitted curve, though single readings scatter. No potency is given beside an inconclusive call; the fits are too rough.

molecular target: Microtubule-associated protein tau (Homo sapiens) (UniProt P10636); assay: qHTS for Inhibitors of Tau Fibril Formation, Fluorescence Polarization; conditions: K18 P301L tau heparin fibrillization, Alexa594 FP, 6 h; series mostly up to 57.7 µM; note: nearly all actives have a fitted effect of over 55% in size
Method in brief: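 Steps: dispense K18 P301L tau (15 uM plus 0.24 uM Alexa 594 tracer, final) in pH 7 sodium acetate; add compound; add heparin (20 uM final); incubate 6 hr, 37 C; add ThT (30 uM final); after 1 hr ambient, read FP.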
Potency is the fitted concentration of half-maximal effect; tags give direction and shape of the fitted curve.

Sequence of UniProt P10636 (P10636 whole entry, looked up): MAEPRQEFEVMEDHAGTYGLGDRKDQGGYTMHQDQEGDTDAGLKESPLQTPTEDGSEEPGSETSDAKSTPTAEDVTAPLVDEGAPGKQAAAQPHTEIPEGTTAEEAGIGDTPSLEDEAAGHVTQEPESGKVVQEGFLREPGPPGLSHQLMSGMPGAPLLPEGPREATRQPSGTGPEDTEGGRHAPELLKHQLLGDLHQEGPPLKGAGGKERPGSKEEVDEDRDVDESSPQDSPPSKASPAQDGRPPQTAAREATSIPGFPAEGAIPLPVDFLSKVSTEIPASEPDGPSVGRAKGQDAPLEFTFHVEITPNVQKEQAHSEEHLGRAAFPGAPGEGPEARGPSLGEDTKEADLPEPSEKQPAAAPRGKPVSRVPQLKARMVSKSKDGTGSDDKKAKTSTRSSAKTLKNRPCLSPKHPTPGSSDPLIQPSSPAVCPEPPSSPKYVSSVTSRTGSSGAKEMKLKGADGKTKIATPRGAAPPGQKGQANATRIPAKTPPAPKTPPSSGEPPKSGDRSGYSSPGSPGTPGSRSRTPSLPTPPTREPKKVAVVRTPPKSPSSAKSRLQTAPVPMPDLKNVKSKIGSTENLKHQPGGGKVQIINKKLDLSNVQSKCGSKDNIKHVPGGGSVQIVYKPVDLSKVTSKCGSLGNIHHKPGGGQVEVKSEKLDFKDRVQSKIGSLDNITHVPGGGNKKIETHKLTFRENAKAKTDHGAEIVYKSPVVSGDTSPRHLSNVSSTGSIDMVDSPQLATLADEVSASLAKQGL

Row | SMILES | Potency
1 | N#CC1=C(N)SC(N)=C(C#N)C1C1C=CCCC1 (centres undefined) | inactive
2 | CCOc1ccc(NC(=S)Nc2cccnc2)cc1 | inactive
3 | CC(C)(C)OC(=O)NCCCC[C@H](NC(=O)c1[nH]cnc1C(=O)Nc1ccc(Cl)cc1)C(=O)OC(C)(C)C | inconclusive [inhibitor, partial curve]
4 | CS(=O)(=O)c1cnc(-c2ccccc2)nc1Oc1ccc(F)cc1 | inconclusive [inhibitor, single point]
5 | Cc1cc(C)c(Cn2c(=O)n(CCCC(=O)NCc3ccc4c(c3)OCO4)c(=O)c3sccc32)c(C)c1 | inactive
6 | O=C(OC(C(=O)Nc1cccc(C(F)(F)F)c1)c1ccccc1)C1CCCCC1 (centres undefined) | inconclusive [inhibitor, single point]
7 | Cc1cccc(/C=N/NC(=O)CNc2cccc3ccccc23)n1 | inconclusive [activator, full curve]
8 | Cn1c(=O)c2c(nc(SCC(=O)Nc3ccc(F)c(F)c3)n2Cc2ccccc2F)n(C)c1=O | inconclusive [inhibitor, partial curve]
9 | COC(=O)c1cccnc1NC(=S)NNC(=O)c1ccncc1 | inactive
10 | c1ccc(CN2CCC(Nc3nc(-c4cccnc4)nc4ccccc34)CC2)cc1 | inconclusive [inhibitor, single point]
11 | O=C1S/C(=C\c2ccc(Cl)cc2)C(=O)N1CCn1cnnn1 | inactive
12 | O=C1CNC(=S)N1CCc1ccc(O)c(O)c1 | inactive
13 | CCOC(=O)C(C)Sc1nc(-c2ccccc2)nc2ccccc12 (centres undefined) | inconclusive [inhibitor, single point]
14 | COc1cc(C2C3=C(CCCC3=O)Nc3c2c(C)nn3-c2cccc(C)c2)cc(OC)c1O (centres undefined) | inconclusive [inhibitor, partial curve, poor fit]
15 | CCN1CCN(Cc2ccc(NC(=O)c3ccc(C)c(NC(=O)c4c[nH]c5cc(C(F)(F)F)ccc5c4=O)c3)cc2C(F)(F)F)CC1 | inconclusive [inhibitor, single point]
16 | Cc1ccc(NC(=O)CN2C(=O)S/C(=C/c3ccc(-c4cccc(C(=O)O)c4)o3)C2=O)cc1 | inactive
17 | Cc1cc2cc(C(c3nnnn3Cc3ccco3)N3CCc4ccccc4C3)c(=O)[nH]c2cc1C (centres undefined) | inconclusive [inhibitor, single point]
18 | O=C(Nc1ccc(NC(=O)c2ccco2)cc1)c1ccc2c(c1)OCO2 | inconclusive [inhibitor, single point]
19 | Cc1ccc2cc(C=O)c(N(C)C)nc2c1 | inactive
20 | Cc1ccc2nc(N(CCCN(C)C)C(=O)COc3ccc(Cl)cc3)sc2c1 | inconclusive [inhibitor, single point]
21 | COC(=O)NC(=S)Nc1ccc(Oc2ccc(Cl)cc2)c(Cl)c1 | inconclusive [inhibitor, full curve, poor fit]
22 | COC1=CC(=O)C=C(OC)C1=O | active: 22.4 µM

Row | SMILES | Potency
23 | COC(=O)C1OC(=O)C2OC23[C@]2(C)C(OC(C)=O)CC4C(C)(C)C(=O)CC[C@]4(C)C2CC[C@@]13C (some centres undefined) | inconclusive [inhibitor, partial curve, poor fit]
24 | Cc1ccsc1C(=O)OCC(=O)Nc1cccc(S(=O)(=O)N2CCOCC2)c1 | inconclusive [inhibitor, full curve, poor fit]
25 | COc1ccc(NC(=S)N(CCN(C)C)C(C)c2ccncc2)cc1Cl (centres undefined) | inactive
26 | FC(F)(F)c1cccc(NC(=S)NNC(=S)Nc2ccc(Cl)cc2)c1 | inconclusive [inhibitor, single point]
27 | C/C(=N\Nc1ccc(C(F)(F)F)cn1)c1ccc(S(=O)(=O)NCc2ccco2)cc1 | inconclusive [inhibitor, partial curve]
28 | CC(=O)c1ccc(NC(=O)CSc2nnc(Cc3cccn3C)n2-c2ccc(F)cc2)cc1 | inactive
29 | O=C(NCc1cccc(F)c1)c1ccccc1NC(=O)c1nsc2ccccc12 | inconclusive [inhibitor, partial curve, poor fit]
30 | Cc1nn2c(NCCCN(C)C)c3c(nc2c1-c1ccccc1)CCC3 | inconclusive [activator, partial curve]
31 | N/C(=N\OS(=O)(=O)c1ccc2ccccc2c1)c1ccncc1 | inconclusive [inhibitor, partial curve, poor fit]
32 | CC(CCC(=O)O)C1CCC2C3CC[C@H]4CC(O)CC[C@@]4(C)C3C=C[C@]12C (some centres undefined) | inconclusive [inhibitor, single point]
33 | CC(C)c1ccc2oc(-c3cc(N)ccc3O)nc2c1 | inconclusive [activator, partial curve]
34 | CCOc1ccc(NC(=O)C(c2ccccn2)N(C(=O)CCl)c2ccc(OCC)cc2)cc1 (centres undefined) | inconclusive [inhibitor, partial curve]
35 | CC(C)C[C@H](NC(=O)c1[nH]cnc1C(=O)Nc1ccc(CNC(=O)OC(C)(C)C)cc1)C(=O)OCc1ccccc1 | active: 10 µM
36 | Fc1cccc(CSc2ccc(-c3cccs3)nn2)c1 | inconclusive [inhibitor, partial curve]
37 | COc1ccc(S(=O)(=O)NCCc2csc3nc(-c4ccccc4)nn23)cc1OC | inconclusive [inhibitor, partial curve]
38 | CC(N=c1ccccn1C(=O)Nc1cccc(C(F)(F)F)c1)c1ccco1 (centres undefined) | inconclusive [inhibitor, single point]
39 | O=[N+]([O-])c1cc2c(cc1C=Nc1ccccc1)OCO2 | inactive
40 | COc1ccccc1/C=N/NC(=O)CC(=O)Nc1ccc(Cl)c(Cl)c1 | inconclusive [inhibitor, single point]
41 | O=C(NCCCCc1ccccc1)C12CN(Cc3ccccc3)CC1C(c1cccc([N+](=O)[O-])c1)=NO2 (centres undefined) | inactive
42 | CCC(/C=C1\Sc2ccc(OC)cc2N1CC)=C\c1sc2ccc(OC)cc2[n+]1CCCS(=O)(=O)[O-] | inconclusive [activator, full curve]
43 | O=C(CSc1nc2ccccc2s1)Nc1ccc(Cl)c(S(=O)(=O)N2CCOCC2)c1 | inconclusive [inhibitor, partial curve]
44 | c1ccc(-c2noc(CSc3nc4ccccc4o3)n2)cc1 | inconclusive [inhibitor, single point]

Row | SMILES | Potency
45 | CN(c1ccccc1)S(=O)(=O)c1ccc(C(=O)Nc2nnc(C3CC3)s2)cc1 | inconclusive [inhibitor, partial curve, poor fit]
46 | CC(=O)c1ccc(NC(=O)c2ccc(S(=O)(=O)c3ccccc3)cc2)cc1 | inconclusive [inhibitor, single point]
47 | Cc1ccc(-n2[nH]c(C)c(/C=N/c3ccccn3)c2=O)cc1 | inactive
48 | CC(C)c1ccc(C2CC(=O)Nc3cc4c(cc32)OCCO4)cc1 (centres undefined) | inconclusive [activator, single point]
49 | Cc1ccc(/C=C(\C#N)C(=O)NC(C)C)o1 | inactive
50 | COc1ccc(-n2c(SCC(=O)Nc3nccs3)nc3sc4c(c3c2=O)CCN(C)C4)cc1 | inconclusive [inhibitor, partial curve, poor fit]
51 | CCOC(=O)C1(CC)NC(c2ccco2)C2C(=O)N(c3ccc(C)cc3)C(=O)C21 (centres undefined) | inconclusive [inhibitor, single point]
52 | COc1cc(NC(=O)c2cccc(C)c2)c(Cl)cc1[N+](=O)[O-] | inconclusive [inhibitor, single point]
53 | CCCCNc1ccc(S(=O)(=O)c2cccc([N+](=O)[O-])c2)cc1[N+](=O)[O-] | inconclusive [activator, full curve, poor fit]
54 | COc1c(Cl)cc(C(=O)Nc2cc(-c3nc4ccccc4[nH]3)ccc2C)cc1Cl | inconclusive [inhibitor, partial curve]
55 | O=C(Nc1ccc2c(c1)OCO2)c1ccc(COc2ccc3c(c2)CCC3)o1 | inconclusive [activator, partial curve, poor fit]
56 | Cc1ccc(NC(=O)CCC(=O)OCc2ccc(Br)cc2)cc1 | inconclusive [inhibitor, single point]
57 | Cc1ccc(NC(=O)Cn2c(=O)n(Cc3nc(-c4ccccc4)no3)c(=O)c3ccccc32)c(C)c1 | inconclusive [inhibitor, full curve, poor fit]
58 | CCN(CC)S(=O)(=O)c1ccc(S(=O)(=O)N2CCN(CCC#N)CC2)cc1 | inconclusive [inhibitor, partial curve, poor fit]
59 | CCOC(=O)c1cc2c(ccn2C)n1CC(=O)Nc1ccc(F)cc1 | inconclusive [inhibitor, single point]
60 | O=C(O)C1C2CCC(O2)C1C(=O)Nc1cccc(F)c1 (centres undefined) | inactive
61 | CCC(C(=O)OCC(=O)Nc1ccc(SC(F)F)cc1)c1ccccc1 (centres undefined) | inconclusive [inhibitor, partial curve]
62 | CCOC(=O)C1CCCN(C(=O)c2ccc(CS(=O)(=O)c3ccc(C)cc3)o2)C1 (centres undefined) | inconclusive [activator, partial curve, poor fit]
63 | Cc1cc2ccccn2c1C(=O)Nc1cccc(Cl)c1 | inconclusive [activator, partial curve]
64 | CN1CCN(c2ccc(NC(=O)c3cccc(OCc4ccccc4)c3)cc2)CC1 | inconclusive [activator, full curve, poor fit]
